For 9 substances, binding results are on record in paper PMC10526654.

Protein sequences, listed by entry. Tags and fused reporters are not part of them. Lines headed by an entry give the natural chain unless they say otherwise; changes in a name come on top.
UniProt P19474: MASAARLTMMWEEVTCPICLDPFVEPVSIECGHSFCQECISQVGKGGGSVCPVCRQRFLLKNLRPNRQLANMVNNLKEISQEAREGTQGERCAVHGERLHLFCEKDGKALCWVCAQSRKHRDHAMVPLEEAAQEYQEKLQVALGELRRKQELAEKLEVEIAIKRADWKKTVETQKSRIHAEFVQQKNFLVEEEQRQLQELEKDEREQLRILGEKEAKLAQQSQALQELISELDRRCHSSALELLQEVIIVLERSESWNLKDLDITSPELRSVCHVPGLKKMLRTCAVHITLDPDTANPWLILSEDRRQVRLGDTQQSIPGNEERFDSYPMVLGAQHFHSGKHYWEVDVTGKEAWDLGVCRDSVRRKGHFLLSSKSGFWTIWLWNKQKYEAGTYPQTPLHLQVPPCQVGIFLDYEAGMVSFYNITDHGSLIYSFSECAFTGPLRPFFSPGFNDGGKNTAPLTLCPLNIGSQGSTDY
UniProt P35222: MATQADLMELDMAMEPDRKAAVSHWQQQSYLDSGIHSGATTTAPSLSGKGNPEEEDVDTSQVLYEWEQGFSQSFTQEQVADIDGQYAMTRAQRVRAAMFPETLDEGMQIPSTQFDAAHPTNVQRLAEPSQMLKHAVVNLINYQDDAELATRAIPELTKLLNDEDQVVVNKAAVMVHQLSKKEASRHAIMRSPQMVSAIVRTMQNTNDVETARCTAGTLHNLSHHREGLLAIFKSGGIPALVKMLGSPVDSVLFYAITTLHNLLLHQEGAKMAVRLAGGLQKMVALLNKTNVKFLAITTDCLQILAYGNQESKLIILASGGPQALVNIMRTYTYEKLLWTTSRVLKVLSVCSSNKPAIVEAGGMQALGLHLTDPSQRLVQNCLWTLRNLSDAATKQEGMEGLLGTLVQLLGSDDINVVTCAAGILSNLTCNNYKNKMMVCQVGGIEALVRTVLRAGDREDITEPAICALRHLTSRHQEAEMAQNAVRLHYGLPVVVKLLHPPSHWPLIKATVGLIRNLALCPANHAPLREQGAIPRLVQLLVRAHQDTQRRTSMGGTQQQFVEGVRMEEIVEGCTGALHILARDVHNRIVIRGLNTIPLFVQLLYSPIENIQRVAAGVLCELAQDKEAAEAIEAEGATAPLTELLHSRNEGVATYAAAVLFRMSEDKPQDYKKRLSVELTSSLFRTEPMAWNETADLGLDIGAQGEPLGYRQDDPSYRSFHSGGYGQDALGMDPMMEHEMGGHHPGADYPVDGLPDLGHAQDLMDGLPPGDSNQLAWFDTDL

Assay [1] deals with T1, Flag-TIF1γ (in GBM cells) (UniProt Q9UPN9).
T1 sequence: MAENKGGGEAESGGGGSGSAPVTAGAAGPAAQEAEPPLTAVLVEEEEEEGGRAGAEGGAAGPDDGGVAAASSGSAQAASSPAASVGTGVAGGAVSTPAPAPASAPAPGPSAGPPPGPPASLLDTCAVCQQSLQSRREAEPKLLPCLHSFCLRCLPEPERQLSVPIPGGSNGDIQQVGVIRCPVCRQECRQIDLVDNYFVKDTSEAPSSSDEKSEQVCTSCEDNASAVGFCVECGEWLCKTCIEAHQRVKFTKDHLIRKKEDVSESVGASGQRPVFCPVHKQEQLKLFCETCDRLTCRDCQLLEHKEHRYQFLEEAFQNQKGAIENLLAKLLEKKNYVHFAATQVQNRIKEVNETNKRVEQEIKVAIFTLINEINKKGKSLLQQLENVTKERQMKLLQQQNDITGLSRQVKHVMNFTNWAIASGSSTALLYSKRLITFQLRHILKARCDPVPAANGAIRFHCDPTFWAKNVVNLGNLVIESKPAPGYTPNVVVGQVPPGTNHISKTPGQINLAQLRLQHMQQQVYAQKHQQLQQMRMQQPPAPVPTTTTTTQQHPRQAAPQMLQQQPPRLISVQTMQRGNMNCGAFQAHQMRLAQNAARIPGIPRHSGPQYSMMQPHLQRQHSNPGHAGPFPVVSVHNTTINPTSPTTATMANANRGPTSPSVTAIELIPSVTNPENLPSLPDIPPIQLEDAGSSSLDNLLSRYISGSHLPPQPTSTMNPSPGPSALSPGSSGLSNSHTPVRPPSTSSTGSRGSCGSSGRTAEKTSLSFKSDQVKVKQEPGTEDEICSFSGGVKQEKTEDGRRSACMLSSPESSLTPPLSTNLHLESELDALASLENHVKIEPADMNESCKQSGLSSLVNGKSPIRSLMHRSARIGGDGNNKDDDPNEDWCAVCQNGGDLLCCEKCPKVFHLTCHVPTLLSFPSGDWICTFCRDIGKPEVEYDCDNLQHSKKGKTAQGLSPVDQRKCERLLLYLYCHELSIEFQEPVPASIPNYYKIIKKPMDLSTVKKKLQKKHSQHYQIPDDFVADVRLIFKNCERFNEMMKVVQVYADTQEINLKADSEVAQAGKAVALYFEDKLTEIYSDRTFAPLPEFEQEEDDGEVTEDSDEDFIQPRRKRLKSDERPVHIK
Description: co-IP; U87-MG cells transfected with HA-TRIM21 or HA-TRIM21-R443W and/or Flag-TIF1γ; immunoprecipitated with anti-TIF1γ.

Assay [2] has as its target T2, GST-His-TIF1γ (UniProt Q9UPN9).
T2 sequence: T1 sequence
In words: pull-down; about 100 µg GST-His-TIF1γ immobilized on 50 µL glutathione agarose; His-tagged β-catenin added, overnight at 4 °C; immunoblotting; only the target purified. A general note: In western blotting, separated proteins are transferred to a membrane and probed.

Assay [3] deals with HA-TRIM21 (WT, in 293T cells) (UniProt P19474). Description: co-IP; co-expression in 293T cells; IP with a HA antibody, immunoblotting with FLAG and HA antibodies (Figure 3I; Figure S4B for the TRIM21 truncation mutants).
For assay [4], the target named is β-catenin (in HEK293-T lysate) (UniProt P35222). Description: co-IP; lysates of U87-MG-OETRIM21-Flag (Flag antibodies) and of HEK293-T (β-catenin antibodies); precipitates measured by western blotting.
Assay [5] has as its target T2, GST-His-TIF1γ. Description: pull-down; about 100 µg GST-His-TIF1γ immobilized on 50 µL glutathione agarose; His-tagged TRIM21 added together with His-tagged β-catenin, overnight at 4 °C; immunoblotting; both purified.
Assay [6] has as its target TRIM21-Flag (U87-MG-OETRIM21-Flag) (UniProt P19474). Description: co-IP; lysates of U87-MG-OETRIM21-Flag (Flag antibodies) and of HEK293-T (β-catenin antibodies); precipitates measured by western blotting.
Assay [7] concerns the target T1, Flag-TIF1γ (in GBM cells). Description: co-IP; cytoplasmic fraction of cells.
For assay [8], the target named is T1, Flag-TIF1γ (in GBM cells). In words: co-IP; U87 and U251 cells; ectopic TRIM21 with TIF1γ (Figure 4C); Flag-TIF1γ precipitated with anti-flag (Figure 4D); wash 50 mM Tris HCl, 150 mM NaCl, pH 7.4.
Assay [9] addresses T1, Flag-TIF1γ (in GBM cells). Description: co-IP; nuclear fraction of cells.
Assay [10] addresses T3, Flag-TIF1γ (full-length, in 293T cells) (UniProt Q9UPN9).
T3 sequence: T1 sequence
Description: co-IP; 293T cells co-transfected with Flag-TIF1γ and HA-TRIM21, or their truncation mutants, for 48 h.

Results are given in words; binding and its absence hold for the method and conditions named. For some assays here: In cells and extracts the contact can be indirect. Some entries that bind do so weakly or less than the wild type. For some assays here: Sequences can lack the tags named with a protein.

Take “HA-TRIM21^R443W (from UniProt P19474 1-475)”: the binding entry in assay [1] was “no binding”. For the substance “His-tagged β-catenin (from UniProt P35222 1-781)”, the binding entry in assay [2] is “binds”.

With “HA-TRIM21 (in GBM cells) (from UniProt P19474 1-475)”, in [1], the binding entry is given as “binds”.

Turning to “Flag-β-catenin (in 293T cells) (from UniProt P35222 1-781)”, the binding entry in [3] is listed as “binds”.

Take “TRIM21 (in HEK293-T lysate) (from UniProt P19474 1-475)”: in assay [4], the binding result is listed as “binds”. “His-tagged TRIM21 (MCE HY-P71791) (from UniProt P19474 1-475)”: the binding entry in assay [5] is given as “binds”.

As to “β-catenin (in U87-MG-OETRIM21-Flag cells) (from UniProt P35222 1-781)”, the binding result in assay [6] is recorded as “binds”.

As for “endogenous TRIM21 (from UniProt P19474 1-475)”, the binding entry in assay [7] is reported as “no binding (condition: in the cytoplasmic fraction)”; in assay [8], “binds”; in [9] it was “binds”.

Turning to “HA-TRIM21 (WT, in 293T cells) (from UniProt P19474 1-475)”, in [10], the binding result was “binds”.
